Measurements from PubChem BioAssay AID463173 (ICCB-Longwood Screening Facility, Harvard Medical School, 2010).
The campaign covered roughly 52,000 compounds. About 4,300 (8.3%) were called active. Cut-off read from the data, not from the text of the source: active = survival mostly below about 52% (no sharp cut-off); inactive = mostly above about 56%. The list shows a part of the results.

system: DeltatarO mutant; test: growth inhibition of S. aureus wild type versus tarO mutant, primary screen, teichoic acid synthesis inhibitors, RN4220, OD600 (AID 463173); details: OD600, 18 h, active compounds read low, screened at 18.75 µg/mL (by protocol)

SMILES | survival
Cc1oc2ccc(O)c(CN3CCN(C)CC3)c2c1C(=O)Nc1cccc(C(F)(F)F)c1 | inactive: 81%
CCOC(=O)c1c(NC(=O)CSc2cn(CCNC(=O)c3ccccc3OC)c3ccccc23)sc2c1CCC2 | inactive: 141%
CC(C)c1nc2n(n1)C1(CCCCC1)[C@@H]1CCCC[C@@H]1N2 | inactive: 111%
CCS(=O)(=O)N1CCC(NC(=O)C(Cc2ccc(OC)c(OC)c2)NC(C)=O)CC1 (configuration not stated) | inactive: 100%
COCCNC(=S)N1CCC(NC(=O)Nc2ccc(F)cc2)CC1 | inactive: 91%
CCCNC(=O)C(CC)n1nc(CC)n2c(cc3oc(C)cc32)c1=O (configuration not stated) | inactive: 120%
COc1cccc(C(=O)c2cn(CC(=O)NCCc3ccccc3)c3nc(C)ccc3c2=O)c1 | inactive: 74%
CCCN(CCC)CCCNC(=O)Cn1cc2c(n1)-c1c(oc(C(=O)N3CCCC3)c1C)CC2 | inactive: 82%
Cc1ccc(C(=O)c2oc3ccccc3c2NC(=O)COc2ccccc2Cl)cc1 | inactive: 123%
COc1cccc(NC(=O)Cn2c(=O)n(CCc3ccccc3)c(=O)c3c4c(sc32)CN(C(C)=O)CC4)c1 | inactive: 69%
CCCNC(=O)C1CCN(S(=O)(=O)c2ccccc2)CC1 | inactive: 96%
CCOC(=O)c1cc2c(=O)n3ccccc3nc2n(CC2CCCO2)c1=NC(=O)c1ccc(OC)cc1OC (configuration not stated) | active: 38%
CCOc1ccc(NC(=O)NCc2ccc3c(c2)CCN3C(C)=O)cc1 | inactive: 74%
O=C(OC1CSc2nc3ccccc3n2C1)c1ccccc1Cl (configuration not stated) | inactive: 95%
Cc1cc(C)n(-c2nc3ccccc3nc2N2CCN(c3cccc(C)c3C)CC2)n1 | active: -6%
CCCOc1ccc(C(=O)Nc2cc(-c3nc4ccccc4[nH]3)ccc2C)cc1 | active: 44%
COc1cccc(CN2CCCN(Cc3ccc(F)cc3)S2(=O)=O)c1 | inactive: 89%
COc1cccc(CNC(=O)c2cc3cc(C)ccc3n2C)c1 | inactive: 78%
Cc1ccc(O)c(NC(=O)C2=CC(c3cccs3)=NS(=O)(=O)N2C)c1 | inactive: 76%

SMILES | survival
Cc1ccccc1OCC(=O)Nc1nnc(SCc2cc(=O)n3cccc(C)c3n2)s1 | inactive: 84%
Cc1ccc(C2C(C(=O)/C=C/c3ccccc3)=C(O)C(=O)N2CCO)cc1 (configuration not stated) | inactive: 78%
CC(C)n1c(SCC(=O)c2ccc(F)cc2)nc2c(sc3ccccc32)c1=O | inactive: 68%
Cc1cccc2nc(Cn3c(=O)n(-c4ccccc4)c(=O)c4c5c(sc43)CCC5)cc(=O)n12 | inactive: 53%
COc1ccccc1OCCCn1c(C2CC(=O)N(c3ccc(F)cc3)C2)nc2ccccc21 (configuration not stated) | inactive: 76%
CCOc1ccccc1NC(=O)CSc1nnc(CC)c(CC)n1 | inactive: 73%
CCCN(C(=O)c1c(C)oc2ncn(CC(C)C)c(=O)c12)c1ccccc1C | inactive: 80%
COc1ccc(-c2nn(C)c3sc(C(=O)Nc4cc(OC)c(OC)c(OC)c4)cc23)cc1OC | inactive: 87%
CCN1c2ccccc2-c2nc(SCC(=O)Nc3cc(OC)cc(OC)c3)ncc2S1(=O)=O | active: 37%
Cc1ccc(-n2c(=O)c3ccc(C(=O)NCc4ccccc4Cl)cc3n(Cc3cccc(F)c3)c2=O)cc1 | inactive: 74%
COc1ccc(N2CCN(C(CNC(=O)c3c(F)cccc3F)c3ccc4c(c3)OCO4)CC2)cc1 (configuration not stated) | inactive: 93%
CC1C(=N)N(c2nc(N(C)C)nc(N(C)C)n2)CC1=O (configuration not stated) | inactive: 88%
Cc1c(NC(=O)C(C)(C)C)cccc1-c1nc2ccccc2s1 | inactive: 49%
Cc1ccc(-n2nc(C(=O)N3CCN(c4cc(C)ccc4C)CC3)c3c4ccccc4n(C)c3c2=O)cc1 | inactive: 92%
Cn1cc(S(=O)(=O)N2CCc3ccccc32)cc1C(=O)Nc1ccc(C(F)(F)F)cc1 | inactive: 75%
CC1Cc2cc(S(=O)(=O)CCC(=O)Nc3ccc(F)cc3Cl)ccc2N1C(=O)C1CC1 (configuration not stated) | inactive: 60%
CCN(CC)c1ccc(NC(=O)Cn2cc3c(n2)CCCC3)c(C)c1 | inactive: 121%
CCc1ccc(NC(=O)CSc2nc3c([nH]c4ccccc43)c(=O)n2C)cc1 | inactive: 83%
Cn1c(=O)n(C)c2cc(N3CCCCC3)c(NC(=O)Nc3ccc(Br)cc3)cc21 | inactive: 88%

SMILES | survival
C/C(=N/NC(=O)Cc1cccs1)c1ccc(C)cc1 | inactive: 80%
Cc1cccc(CNC(=O)c2ccc(Cn3c(SCc4cccc(F)c4)nc4cccnc43)cc2)c1 | inactive: 83%
CCCSc1ncc(Cl)c(C(=O)Nc2ccc(S(=O)(=O)N3CCCCC3C)cc2)n1 (configuration not stated) | inactive: 51%
Ic1ccc(Nc2nc3nonc3nc2N/N=C\c2ccco2)cc1 | inactive: 53%
COc1cccc(NC(=O)C2CC(=O)N(c3ccc(Br)cc3)C2)c1 (configuration not stated) | inactive: 65%
CCOc1ccc(-n2cc(-c3ccccc3)c3c(NCc4ccccc4)ncnc32)cc1 | inactive: 71%
COC(=O)Cc1c(C)c2ccc3c(c2oc1=O)CN(Cc1ccc(Cl)cc1)CO3 | inactive: 66%
COCCn1c(SCc2ccccc2F)nc2c([nH]c3ccccc32)c1=O | inactive: 99%
OC1(C#Cc2ccccc2)CCCCC1 | inactive: 104%
CC(Oc1ccccc1)C(=O)Nc1ccccc1C(=O)OCc1cc(=O)n2nc(C3CC3)sc2n1 (configuration not stated) | inactive: 119%
CCc1nnc(SCC(=O)Nc2ccc(OC)c(OC)c2)c2cc3occc3n12 | inactive: 80%
CCc1ccc(N2CC(C)Cn3c2nc2c3c(=O)n(CC(=O)O)c(=O)n2C)cc1 (configuration not stated) | inactive: 77%
CCOc1ccc(-c2cc(C)n3nc(C(=O)Nc4ccc(C)c(C)c4)cc3n2)cc1 | inactive: 56%
COC(=O)Cc1c(C)nc2nc(NCc3ccc(Br)cc3)[nH]n2c1=O | inactive: 90%
NCC1NCCc2ccccc21 (configuration not stated) | inactive: 68%
CCOC(=O)CN(Cc1ccccc1)C(C(=O)NC1CCCCC1)c1ccccc1 (configuration not stated) | active: -1%
CCCCSc1nc(O)c(CCC(C)C)c(=O)[nH]1 | inactive: 60%
Cc1ccccc1OCc1nnc(SCc2cc(=O)c3cc(F)ccc3[nH]2)n1C | inactive: 88%
N#C/C(=C\c1cccc(F)c1)c1nc(-c2cc3ccccc3oc2=O)cs1 | inactive: 80%
